Results from PubChem BioAssay AID651820 (National Center for Advancing Translational Sciences (NCATS), 2012).
The campaign covered roughly 340,000 compounds. About 12,000 (3.5%) were called active. Inconclusive means that the source gave no clear call. Such entries were picked first, then a sample of the others. The call rests on the fitted dose curve; in most records, active means well fitted inhibition curve with a large enough effect; inconclusive means small, poorly fitted or top-dose-only effect, or another doubt; inactive means no such curve, though single readings can be large or run the other way. Potencies of inconclusive entries are left out as doubtful fits.

Assay: qHTS Assay for Inhibitors of Hepatitis C Virus (HCV)
Settings: Huh7.5.1 HCVcc-Cre (HCVcc is cell-culture hepatitis C virus) infection, luciferase reporter, 44 h; series mostly up to 41.8 µM
Summary of the method: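 After 44 h co-culture of compound, cells and HCVcc-Cre (~0.5 moi), substrate is added for 15 min at room temperature and luciferase measured over 15 sec. Cells were seeded at 1,000/well and pre-cultured 4 h.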
Potency means the concentration at half of the fitted maximal effect; tags describe the fitted curve by direction and shape.

Row | Compound | Potency
1 | Cc1nc(N2CCN(c3ccccn3)CC2)c2c(C)c(C(=O)Nc3c(C)cc(Br)cc3C)sc2n1 | inconclusive [inhibitor, partial curve]
2 | COc1ccccc1NC1=NC(c2ccc(Cl)cc2)N=C(N)N1 (stereo unspecified) | active: 10 µM
3 | COc1ccc(C(=O)CN2C(=O)c3ccccc3S2(=O)=O)cc1Br | inactive
4 | CCOC(=O)/C(C#N)=C/Nc1ccccc1NS(=O)(=O)c1ccc2c(c1)OCCO2 | inactive
5 | O=C(Nc1cccc(Cl)c1)ON=C1c2ccccc2-c2ccccc21 | inconclusive [inhibitor, partial curve]
6 | NS(=O)(=O)c1ccc(-c2ccc(/C=C3\SC(=S)N(C4CCS(=O)(=O)C4)C3=O)o2)cc1 (stereo unspecified) | inconclusive [inhibitor, full curve]
7 | Cc1ccc(C(C)C)c(OCC(=O)Nc2ccc(Cl)cn2)c1 | inconclusive [inhibitor, full curve, poor fit]
8 | Cc1nc(-n2[nH]c3c(c2=O)CCCC3)[nH]c(=O)c1Cc1ccccc1 | active: 7.08 µM
9 | Cc1nn(C(=O)N(C)C)c(C)c1CN1C(=O)c2ccccc2C1=O | inactive
10 | CCOC(=O)c1ccc(-n2[nH]c(-c3ccccc3)cc2=O)cc1 | active: 14.1 µM
11 | COc1cc(/C=N/Nc2ccc(C(F)(F)F)cn2)ccc1O | inconclusive [inhibitor, single point]
12 | COc1cccc(/C=N/Nc2nc3ccccc3[nH]2)c1OC | inactive
13 | COCC1CCN(Cc2cn(Cc3ccccc3)nc2-c2cc3ccccc3o2)CC1 | inactive
14 | O=C(Cc1ccccc1)NCC(=O)Nc1cccc(Cl)c1 | inactive
15 | COC(=O)c1ccc2c(c1)C(C)(C)C(/C=C/c1ccccc1O)=[N+]2C | active: 7.94 µM
16 | COc1ccc(/C=C/c2nc(S(=O)(=O)c3ccccc3)c(N(C)C)o2)cc1OC | inconclusive [inhibitor, single point]
17 | CCOC(=O)NNC(=O)CCn1c2c(c3ccccc31)CCCC2 | inconclusive [inhibitor, partial curve]
18 | CN(C)CCCOc1ccc(C(C)(C)c2ccccc2)cc1 | active: 11.2 µM
19 | COc1ccc(CNc2nc3ccc(C)cc3s2)c(OC)c1OC | inconclusive [inhibitor, single point]
20 | CCCCn1c(NCc2ccc(N(C)C)cc2)nc2ccccc21 | inconclusive [inhibitor, single point]
21 | CCOC(=O)c1c(-c2ccc(C)o2)csc1NC(=O)CN1CCOCC1 | inconclusive [inhibitor, single point]
22 | CN(CCCNC(=O)Cn1c(=O)c2cccn2c2ccccc21)Cc1ccccc1 | inactive
23 | COc1cccc(CC2(CO)CCN(Cc3cnc(-c4cccc(C)c4)nc3)CC2)c1 | inconclusive [inhibitor, single point]
24 | COc1ccc(C2NC(=S)NC3=C2CCc2cc(OC)ccc23)cc1 (stereo unspecified) | inconclusive [inhibitor, single point]

Row | Compound | Potency
25 | CSc1ccc(CSCC(=O)N2CCN(S(=O)(=O)c3ccc(C)cc3C)CC2)cc1 | active: 8.91 µM
26 | O=C(Nc1cccc(Br)c1)c1cc2ccccc2o1 | inconclusive [inhibitor, single point]
27 | Cc1cccc(N2CCN(C(=S)NCc3ccco3)CC2)c1C | inconclusive [inhibitor, single point]
28 | CCCCC1CN2CCc3c([nH]c4ccccc34)C2(C)C1 (stereo unspecified) | inconclusive [inhibitor, full curve]
29 | CCCCOC(=O)c1ccc(NC(=O)C(=O)NCCN(C)C)cc1 | inconclusive [inhibitor, single point]
30 | COc1ccc(C(CNC(=O)c2cc(S(=O)(=O)N3CCCC3)ccc2Cl)N2CCCC2)cc1 (stereo unspecified) | inconclusive [inhibitor, single point]
31 | CC(CCc1ccc(O)cc1)NCCc1ccc(O)c(O)c1 (stereo unspecified) | inconclusive [inhibitor, full curve]
32 | COc1cc(-c2cc(C(=O)N(C)Cc3ccccc3)c3ccccc3n2)cc(OC)c1OC | inconclusive [inhibitor, single point]
33 | CC(NC(=O)CSc1ccc(S(=O)(=O)N2CCOCC2)cn1)c1ccc(Cl)cc1Cl (stereo unspecified) | inconclusive [inhibitor, single point]
34 | CCCc1cc(C(=O)N2CCN(c3ccc(C(F)(F)F)cn3)CC2)sc1C | inconclusive [inhibitor, single point]
35 | CC(C)(C)c1ccc(C(=O)C2CCCN(C(=O)C3CCOCC3)C2)cc1 (stereo unspecified) | inactive
36 | Cc1cc(OCC(=O)Nc2cccc(S(=O)(=O)N3CCCCC3)c2)ccc1Cl | inconclusive [inhibitor, partial curve]
37 | C#CCOCCOCCOCCNc1nc(N2CCN(C(=O)CCCCCCCCCCNC(=O)Cn3cc(CCCCCN)nn3)CC2)nc(N2CCN(C(=O)CCCCCCCCCCNC(=O)Cn3cc(C[C@@H](C)O)nn3)CC2)n1 | inconclusive [inhibitor, single point]
38 | Cn1cc(C(=O)Nc2ccc(F)c(F)c2)cn1 | inactive
39 | c1ccc(-c2nc3ccccc3o2)nc1 | inactive
40 | CNS(=O)(=O)c1cccc(C(=O)OCC(=O)Nc2ccc3ccccc3c2)c1 | inactive
41 | CN(Cc1ccc(F)cc1)C(=O)CN1C(=O)c2ccccc2S1(=O)=O | inconclusive [inhibitor, partial curve]
42 | Cc1ccccc1OCc1nc(-c2ccc(NC(=O)c3cccs3)cc2)no1 | inconclusive [inhibitor, partial curve]
43 | CC(C)c1ccc(C(=O)Nc2ccc(CN3CCOCC3)cc2)cc1 | inconclusive [inhibitor, partial curve]
44 | COc1cccc(-c2ncc3ccccn23)c1 | inconclusive [inhibitor, partial curve]
45 | CCN(CC)S(=O)(=O)c1ccc(C)c(NC(=O)Cn2cnc3cc([N+](=O)[O-])ccc3c2=O)c1 | inconclusive [inhibitor, partial curve]
46 | Cc1cccc(C)c1NC(=O)Cn1nnc(C(=O)Nc2ccc(F)cc2F)c1N | inactive
47 | C[C@@H]1CC(=O)[C@H]2CC(CO)=CCC[C@@H]2[C@@]1(C)CC/C(=C/CO)CO | inconclusive [inhibitor, single point]
48 | O=C(Nc1ccccc1N1CCOCC1)c1ccc(Cl)c(S(=O)(=O)NCc2ccco2)c1 | inconclusive [inhibitor, single point]

Row | Compound | Potency
49 | O=C(CCCOc1ccc(Br)cc1)Nc1ccc(S(=O)(=O)N2CCOCC2)cc1 | inconclusive [inhibitor, single point]
50 | COc1ccc(OCC(=O)NNc2c3ccccc3nc3ccccc23)cc1 | active: 6.31 µM
51 | CC1CCCC(C)N1C(=O)COc1ccc([N+](=O)[O-])cc1Cl (stereo unspecified) | inconclusive [inhibitor, single point]
52 | O=c1cc(-c2ccccc2)oc2ccc(O)cc12 | inconclusive [inhibitor, partial curve]
53 | COc1ccc(-n2c(O)c(C=Nc3ccccc3)c3ccccc3c2=O)cc1 | inactive
54 | O=C1CN(C(=O)COc2ccccc2Cl)c2ccccc2N1 | inactive
55 | CCOc1cc(/C=C/C(=O)N(CC)CC(=O)NCc2cccs2)cc(Cl)c1OC | inconclusive [inhibitor, single point]
56 | Cc1ccc(S(=O)(=O)N(CCC(=O)NCc2ccccc2F)c2ccccc2)cc1 | inactive
57 | Cc1cccc(NS(=O)(=O)c2ccc(C3CCCCC3)cc2)c1 | inconclusive [inhibitor, single point]
58 | O=C(NNC(=O)c1ccccc1O)c1ccc(NS(=O)(=O)c2ccc(F)c(F)c2)cc1 | inconclusive [inhibitor, single point]
59 | COc1cc([N+](=O)[O-])ccc1NC(=O)CN(C)C | inconclusive [inhibitor, partial curve]
60 | NC(=S)Nc1ccc2cn[nH]c2c1 | inactive
61 | Cc1cccc(N2CCN(C(=O)CCCOc3ccccc3)CC2)c1C | inactive
62 | OC(CNCC(c1ccc(Cl)cc1Cl)c1c[nH]c2ccccc12)c1ccccc1 (stereo unspecified) | inconclusive [inhibitor, single point]
63 | O=C(c1ccc(-n2cncn2)c([N+](=O)[O-])c1)N1CCN(S(=O)(=O)c2ccc(F)c(F)c2)CC1 | inactive
64 | CC(C)N(CCCNC(=O)Cn1c(=O)c2cccn2c2ccccc21)Cc1ccccc1 | inactive
65 | COc1cc(-c2nnc(NC(=O)CS(=O)(=O)c3ccc(C)cc3)o2)cc(OC)c1OC | inactive
66 | Cc1cccc2c(C(=O)N3CCN(C(=O)c4ccco4)CC3)cc(-c3cccc(Br)c3)nc12 | inconclusive [inhibitor, single point]
67 | Cc1cc(NC(=O)CSc2nc3c(C)ccc(C)c3cc2C#N)no1 | inconclusive [inhibitor, single point]
68 | NS(=O)(=O)c1cccc(NC(=O)CSc2ccccn2)c1 | inactive
69 | CCOC(=O)N1CCC(NC(=O)c2cc3cc4cc(OC)ccc4nc3o2)CC1 | inconclusive [inhibitor, single point]
70 | O=C(C1=C[C@H](c2ccc(Br)cc2)C[C@H](OCCCCO)O1)N1CCN(Cc2ccc3c(c2)OCO3)CC1 | inconclusive [inhibitor, single point]
71 | CCC(C(=O)O)N1C(=O)C2CCCCC2C1=O (stereo unspecified) | inactive
